Experimental findings from the supplement of paper PMC11417369 are described below.

± gives the standard deviation of the averaged measurements. This is one part of the list.

This assay concerns PfAP2-LT AP2 domain (GST-tagged). The assay is described as follows: gcPBM binding intensity (ln(normalized median fluorescence intensity)); higher = stronger DNA binding. In a few lines:
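For binding intensity, the highest Masliner-normalised natural-log median intensity across replicate spots of either probe orientation was taken. Protein bound to the array was stained with Alexa488 anti-GST antibody and scanned at 488 nm. The protein, GST-tagged P. falciparum DNA-binding domains from E. coli at about 25 μg on average, had been applied for 1 h to an Agilent 4 × 180k array of primer-extended double-stranded 36-bp intergenic genomic probes and negative controls.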
Turning to “ATATATATATATATGTGTACACAACAAAATAAAAAA [XGTACX_site7378]”, the “gcPBM binding intensity (ln)” value came to 9.19 ± 0.42.

In the case of “AAAAAAATAACAAAATGTATACAATATAACAAAAAT [GTGCAC_negctrl_site512]”, the “gcPBM binding intensity (ln)” value came out at 9.05 ± 0.51.

Consider “AGTATAAATAAATCATAAACATATATATATATATAT [GTGCAC_negctrl_site356]”, for which the “gcPBM binding intensity (ln)” value was determined as 9.67 ± 0.14.

On to “ATATATACATATAACACACACATATATATATATATA [CACACA_site2575]”, for which the “gcPBM binding intensity (ln)” value was 9.82 ± 0.15.

Consider “ATATTTAAATCGAAGGTGCGTATTTCCTTTTTTTTT [GTGCAC_site9632]”, for which the “gcPBM binding intensity (ln)” value was found to be 8.82 ± 0.49.

“CTCATCCTTACATACACACACATATATATATATATA [CACACA_site103]”: the “gcPBM binding intensity (ln)” value came out at 9.93.

Turning to “ATTCATTTCTATTTTACACACAATAAGTAACTTAAT [CACACA_site2850]”, the “gcPBM binding intensity (ln)” value came to 9.04 ± 0.41.

In the case of “TTTATTTATTATTAAAGTACTAAATCATATTATTAT [XGTACX_site992]”, the “gcPBM binding intensity (ln)” value amounted to 8.4 ± 0.41.

“TATTTATATATTATGTGTCCACATGTAAGCTATCTT [XGTACX_site3887]”: the “gcPBM binding intensity (ln)” value came out at 8.8 ± 0.45.

As to “TTTTCTTTTTTCTGTTGTACTAAAAATAATTTTGTA [XGTACX_site5171]”, the “gcPBM binding intensity (ln)” value is 8.48 ± 0.44.

For “TATACATTATCTTATGCATGCGCATCTGCATATAAA [TGCATGCA_site266]”, the “gcPBM binding intensity (ln)” value is 8.91 ± 0.33.

For the sequence “AATAGAACAAATAAAACACACACATATATATATATA [CACACA_site8893]”, the “gcPBM binding intensity (ln)” value came out at 9.76 ± 0.37.

On to “AATATATTTCGAGATACACACATATATAAAAAAAAA [CACACA_site3398]”, for which the “gcPBM binding intensity (ln)” value amounted to 8.91 ± 0.45.

As to “AAAAAAAAAAAAAAGACACACAATGTGAAATAATAA [CACACA_site804]”, the “gcPBM binding intensity (ln)” value was 9.12 ± 0.59.

“AAAATAAAATAAAATACACACATACATACATACAAA [CACACA_site5366]”: the “gcPBM binding intensity (ln)” value turned out to be 9.43 ± 0.26.

Take “CAATAAAGAGGGAATTGTACTTTAAATATCCCTCTT [XGTACX_site1991]”: the “gcPBM binding intensity (ln)” value was found to be 8.6 ± 0.42.

For “ATATATCACAATAAAATTTATAGAATTTTAAATAAG [TGCATGCA_negctrl_site437]”, the “gcPBM binding intensity (ln)” value was found to be 8.29 ± 0.33.

As for “GTTCAATCGGGTGTTACTTCAAACAAGGAACAACAA [TGCATGCA_negctrl_site471]”, the “gcPBM binding intensity (ln)” value was 8.77 ± 0.52.

Regarding “ATAGTAAATATAAAAAGTACTGATTCTTAAATTGTT [XGTACX_site5972]”, the “gcPBM binding intensity (ln)” value turned out to be 8.74 ± 0.48.

As to “TATTTTATTGTTGTTATACACACCATATAAAATATT [CACACA_site1630]”, the “gcPBM binding intensity (ln)” value is 8.78 ± 0.4.

As to “ACTTGACACCAACACACACACATATATAAAAAAAAA [CACACA_site756]”, the “gcPBM binding intensity (ln)” value amounted to 9.71 ± 0.47.

Regarding “TTTTAAAATTTTTTTTTTTTTTTTTTATGAACAAGT [GTGCAC_negctrl_site124]”, the “gcPBM binding intensity (ln)” value is 8.04 ± 0.47.

Turning to “TTTTAAAGAAAATATTTTATCATTATTTTTTGTACT [CACACA_negctrl_site1648]”, the “gcPBM binding intensity (ln)” value is 8.45 ± 0.54.

As for “AATATTTTAAATATTGCATGCAATGAAAAATGTAAA [TGCATGCA_site139]”, the “gcPBM binding intensity (ln)” value was 8.77 ± 0.26.
